# In the supplement of paper PMC12217912:
# The other results are listed elsewhere or left out. The full chains were built here from the parent and the listed change. Values near 0.05 are background.
# B1: TEV protease; numbered along this chain (parent)
# chain: MGESLFKGPRDYNPISSSICHLTNESDGHTTSLYGIGFGPFIITNKHLFRRNNGTLVVQSLHGVFKVKDTTTLQQHLVDGRDMIIIRMPKDFPPFPQKLKFREPQREERICLVTTNFQTKSMSSMVSDTSCTFPSGDGIFWKHWIQTKDGQCGSPLVSTRDGFIVGIHSASNFTNTNNYFTSVPKNFMELLTNQEAQQWVSGWRLNADSVLWGGHKVFMVKPEEPFQPVKEATQL
# Variants of: B1
# Assay: raw area under fraction-flipped curve 0-4 h after induction (AUC4h, not background-subtracted), DNA-recorder readout of cleavage of the substrate (dimensionless); higher = more cleavage of the substrate by the protease variant
# Conditions: temperature: 34 °C; time window: 0-4 h after rhamnose induction
# Method: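 In vivo DNA recorder in E. coli TOP10(DE3) ΔrhaA at 34 °C. Each TEVp single-site mutant (parent TEVp 0) is paired with a single-site variant of the 7-mer TEVs (canonical ENLYFQ|S). The substrate sits between flexible linkers in a Bxb1-sfGFP-TEVs-SsrA fusion, so cleavage stabilises Bxb1 and speeds flipping of a recombination array, read by NGS. The value is the raw area under the fraction-flipped curve over 0-4 h after rhamnose induction (AUC4h), with ≥20 reads per time point. It is not background-subtracted; inactive controls average about 0.047.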
# 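Note: Bxb1 expression induced with 0.2% (w/v) L-rhamnose at OD600 near 0.5, cultures sampled hourly, flipped fraction per protease–substrate barcode pair counted by paired-end Illumina sequencing.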
Variant,area with substrate ENLYFQA,area with substrate ENLYFQC,area with substrate ENLYFQE,area with substrate ENLYFQH,area with substrate ENLYFQI,area with substrate ENLYFQK,area with substrate ENLYFQM,area with substrate ENLYFQN,area with substrate ENLYFQP,area with substrate ENLYFQQ,area with substrate ENLYFQR,area with substrate ENLYFQS,area with substrate ENLYFQV,area with substrate ENLYFQW,area with substrate ENLYFQG,area with substrate ENLYFQL,area with substrate ENLYFQT,area with substrate ENLYFQD,area with substrate ENLYFQY,area with substrate ENLYFQF
F49Y,0.0656,0.0681,0.037,0.0556,0.053,0.11,0.0568,0.0541,0.0498,0.0417,0.0435,0.0668,0.0547,0.0558,–,–,–,–,–,–
R50C,0.104,0.122,–,0.0896,–,–,0.0958,–,–,–,–,0.117,–,0.0734,0.0829,0.0396,0.0676,–,–,–
N52Q,0.0521,0.0806,0.0541,0.0619,–,0.0661,0.067,0.0664,0.0639,–,0.0503,0.079,–,0.0442,0.0793,0.0637,0.0566,–,–,–
N53Q,0.0694,–,–,0.0599,0.0714,0.0541,0.0673,0.0658,0.064,0.0736,0.0524,0.0891,–,–,0.0856,0.0678,0.0493,0.0446,0.0677,–
G54A,0.074,0.0724,–,0.0616,0.0557,0.0493,0.0749,0.0706,–,0.0589,0.0747,0.0714,0.0635,0.0543,–,0.0698,0.0564,0.0227,0.0772,0.0581
G54C,0.0933,0.0806,0.066,–,–,0.0635,0.0661,0.0274,0.0642,–,–,0.0718,0.0557,0.0657,0.0984,0.0663,0.0803,0.0544,0.0563,0.0466
G54M,0.0616,0.0606,–,0.0776,0.0478,0.0539,0.0692,–,0.0483,–,0.0478,0.0719,0.038,0.0624,0.0657,0.0599,0.0545,–,0.077,0.0651
G54W,0.0625,–,0.0536,0.0587,–,–,–,0.0562,0.0526,–,0.0619,0.0691,0.045,0.0627,–,–,–,0.0525,0.113,–
T55C,0.0821,0.143,–,–,–,–,0.0947,0.0806,0.0516,0.0552,0.0476,0.104,0.0638,0.0581,0.122,0.0609,0.0464,–,–,0.0698
V58R,0.0403,–,–,0.0296,0.0432,–,–,0.0565,–,–,0.0553,0.0504,–,0.057,0.0457,0.058,0.0645,0.0539,0.0496,–
Q59G,0.132,0.106,–,–,0.0828,–,0.102,–,–,–,0.0608,0.0984,0.0691,–,0.124,–,0.0564,–,0.0587,–
Q59K,0.0981,–,–,–,0.0583,–,0.0965,–,–,–,0.0607,0.109,0.0484,–,0.0886,0.0461,0.05,0.095,–,–
G63L,0.0803,0.0983,–,0.0723,–,0.0516,0.0714,0.0649,0.06,0.0684,0.0539,0.0871,–,0.0662,0.0798,0.0618,–,–,0.0491,0.0707
